Assay results from patent publication US20260217835A1 (published 2026).

Key:
[1] = target: VHH-Fc with K392D/D399K/K409D (SEQ ID NO: 588); experiment: SEC peak area ratio; full-length heavy chain, light chain and VHH-Fc coexpressed in Expi293F, affinity purified
[2] = target: T1, VHH-Fc with E345R/Q347R/K360D/T366V/D399M/Y407A/K409V (SEQ ID NO: 590); experiment: as above
T1 construct: also called VHH-Fc of Sample No. 309

[3] = target: T2, VHH-Fc with Y349C/E357C/K392D/D399K (SEQ ID NO: 589); experiment: as above
T2 construct: also called VHH-Fc of Sample No. 308

[4] = target: VHH-Fc with T350V/L351Y/T366L/K392L/T394W/F405A/Y407V (SEQ ID NO: 593); experiment: as above
[5] = target: VHH-Fc with E345R/K360E/D399M/Y407A/K409V (SEQ ID NO: 592); experiment: as above
[6] = target: T3, VHH-Fc with E356K/K392D/D399K/K409D (SEQ ID NO: 591); experiment: as above
T3 construct: also called VHH-Fc of Sample No. 310

[7] = target: VHH-Fc with E356K/K392D/D399K/K439E (SEQ ID NO: 587); experiment: as above
[8] = target: the molecule itself; experiment: SEC peak area ratio after coexpression of full-length heavy chain, light chain and Fc fragment
[9] = target: T4, IgG4 Fc fragment without modification (SEQ ID NO: 102) (Homo sapiens (Human), UniProt P01861 part only = IgG part); experiment: as above
T4 construct: Unmodified Fc fragment of subclass IgG4, coexpressed with the full-length heavy chain and the light chain; it pairs as a homodimer or with the full-length heavy chain

[10] = target: the molecule itself; experiment: SEC peak area ratio; coexpression of full-length heavy chain, light chain and Fc fragment
[11] = target: the molecule itself; experiment: SEC peak area ratio after coexpression of full-length heavy chain, light chain and WT Fc fragment in Expi293F, Protein A purified;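 note: chromatogram peaks detected by UV absorbance at 215 nm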
[12] = target: T5, IgG2 Fc fragment without modification (SEQ ID NO: 103) (Homo sapiens (Human), UniProt P01859 99-324 = IgG part); experiment: SEC peak area ratio after coexpression of full-length heavy chain, light chain and Fc fragment
T5 construct: Unmodified Fc fragment of subclass IgG2, coexpressed with the full-length heavy chain and the light chain; it pairs as a homodimer or with the full-length heavy chain

[13] = target: the molecule itself; experiment: co-expression of full-length heavy chain, light chain and Fc fragment in Expi293F, affinity purification, SEC peak area ratio;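 note: purified antibodies analysed by size exclusion chromatography with UV detection at 215 nm, each species given as share of total chromatogram peak area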
[14] = target: T6, IgG2 Fc fragment without modification (SEQ ID NO: 103) (Homo sapiens (Human), UniProt P01859 99-324 = IgG part); experiment: as above
T6 construct: Fc fragment co-expressed with a full-length heavy chain and the light chain; the associating unit is one Fc chain; also called WT-IgG2 Fc fragment

[15] = target: the molecule itself; experiment: SEC area ratio of heavy chain homodimer; co-expressed with Fc fragment SEQ ID NO 62
[16] = target: T7, IgG4 Fc fragment without modification (SEQ ID NO: 102) (Homo sapiens (Human), UniProt P01861 part only = IgG part); experiment: SEC area ratio of heteromultimer after co-expression of full-length heavy chain, light chain and Fc fragment
T7 construct: Fc fragment, IgG4 subclass, no modification

[17] = target: the molecule itself; experiment: SEC area ratio of heavy chain homodimer; co-expressed with Fc fragment SEQ ID NO 102

B1: WT-IgG1: full-length heavy chain SEQ ID NO: 1 with light chain SEQ ID NO: 61 (antibody)
heavy: QVQLQESGPGLVRPSQTLSLTCTVSGYSITSDHAWSWVRQPPGRGLEWIGYISYSGITTYNPSLKSRVTMLRDTSKNQFSLRLSSVTAADTAVYYCARSLARTTAMDYWGQGSLVTVSSASTKGPSVFPLAPSSKSTSGGTAALGCLVKDYFPEPVTVSWNSGALTSGVHTFPAVLQSSGLYSLSSVVTVPSSSLGTQTYICNVNHKPSNTKVDKRV[no letters for human IgG1 Fc]
light: DIQMTQSPSSLSASVGDRVTITCRASQDISSYLNWYQQKPGKAPKLLIYYTSRLHSGVPSRFSGSGSGTDFTFTISSLQPEDIATYYCQQGNTLPYTFGQGTKVEIKRTVAAPSVFIFPPSDEQLKSGTASVVCLLNNFYPREAKVQWKVDNALQSGNSQESVTEQDSKDSTYSLSSTLTLSKADYEKHKVYACEVTHQGLSSPVTKSFNRGEC
notes: Unmodified human IgG1 heavy chain, coexpressed with the light chain and a VHH-Fc; the SEC percents tell how the Fc-bearing chains pair
Heteromultimer (%) [1]: 0% | Heteromultimer (%) [2]: 0% | Heteromultimer (%) [3]: 0% | Heteromultimer (%) [4]: 0% | Heteromultimer (%) [5]: 0% | Heteromultimer (%) [6]: 0% | Heteromultimer (%) [7]: 0%

B2: IgG1 full-length heavy chain without CH3 modification (SEQ ID NO: 1) with light chain SEQ ID NO: 61 (antibody)
heavy: B1 heavy
light: B1 light
notes: also called WT-IgG1
Homo full-length heavy chain (%) [8]: 33.8% | Heteromultimer (%) [9]: 55.3%

B3: full-length human IgG1 heavy chain without modification (WT-IgG1, SEQ ID NO: 1) paired with light chain SEQ ID NO: 61 (antibody)
heavy: B1 heavy
light: B1 light
notes: also called Sample No. 1
Homo full-length heavy chain (%) [10]: 31.5%

B4: WT-IgG1 full-length heavy chain (SEQ ID NO: 1) with light chain (SEQ ID NO: 61), Sample No. 1 (antibody)
heavy: B1 heavy
light: B1 light
notes: also called Sample No. 765
Homo full-length heavy chain (%) [11]: 31.5%

B5: IgG4 full-length heavy chain without CH3 modification (SEQ ID NO: 92) with light chain SEQ ID NO: 61 (antibody)
heavy: QVQLQESGPGLVRPSQTLSLTCTVSGYSITSDHAWSWVRQPPGRGLEWIGYISYSGITTYNPSLKSRVTMLRDTSKNQFSLRLSSVTAADTAVYYCARSLARTTAMDYWGQGSLVTVSSASTKGPSVFPLAPCSRSTSESTAALGCLVKDYFPEPVTVSWNSGALTSGVHTFPAVLQSSGLYSLSSVVTVPSSSLGTKTYTCNVDHKPSNTKVDKRV[no letters for human IgG4 Fc with S228P (EU numbers)]
light: B1 light
Homo full-length heavy chain (%) [8]: 31.8% | Heteromultimer (%) [12]: 56.1%

B6: IgG1 full-length heavy chain without modification (SEQ ID NO: 1) with light chain SEQ ID NO: 61 (antibody)
heavy: B1 heavy
light: B1 light
notes: also called WT-IgG1
Homo full-length heavy chain (%) [13]: 38.7% | Heteromultimer (%) [14]: 50%

B7: IgG4 full-length heavy chain without modification (SEQ ID NO: 92) with light chain (SEQ ID NO: 61) (antibody)
heavy: B5 heavy
light: B1 light
Homo full-length heavy chain (%) [15]: 46.4% | Heteromultimer (%) [16]: 54.3% | Homo full-length heavy chain (%) [17]: 19.4%
